Experimental findings from PubChem BioAssay (NCI) are described below.

SMILES strings stand for the structures. Several values for one entry are separate records, joined by “and”; a condition that tells them apart may be missing. Equal values may be shown once.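 Tested at 5 concentrations; 48 h exposure; 96-well plates; endpoints linearly interpolated, else capped at highest concentration. GI50: concentration for 50% inhibition of growth. Definition used: TGI = concentration required for complete inhibition of growth.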 Numbered stars: 1 amine (or outer) side, 2 acyl side, 3 side chain; on linkers, the order of the positions; unused ones are H or OH. Bridge positions count the residues as written; N and C are the ends. Square brackets hold non-standard residues; d marks the D form. Peptide text beside a SMILES is read from it. ξ: configuration not given here. X32 = CC[C@H](C)[C@@H](N[*:1])[C@@H](O)CC(=O)O[C@H](C(=O)[C@H](C)C(=O)[*:2])C(C)C; NMeY = CN[C@@H](Cc1ccc(O)cc1)C(=O)O; dNMeL = CN[C@H](CC(C)C)C(=O)O; ξΔPro = O=C(O)C1C=CCN1

The assay has as its system NCI-H322M lung. Nature of the assay: NCI anticancer screen, dose series, 48 h.
In turn, `CC(=O)O[C@H]1CCC2[C@@H]3CCC4NC(=O)C(C#N)C[C@]4(C)C3CC[C@@]21C` (stereo partly specified) registered a TGI of over 10 µM. Turning to `Clc1ccc(-c2c(C3=NCCN3)nnn2-c2ccccc2)cc1`, the TGI was over 100 µM. Consider `COc1cc2ncnc3c2cc1OCCCCCN(C)Cc1ccc(Br)cc1N3`, for which the GI50 is 0.125 µM and 0.138 µM; the TGI is 22.1 µM and > 10 µM. The compound `NC1c2c(Cl)sc(Cl)c2C(=O)C1O` (stereo unspecified) gave a TGI of over 100 µM. `O=[N+]([O-])c1ccc2nc(/C=C(\O)c3ccc(Cl)cc3)c(/C=C(\O)c3ccc(Cl)cc3)nc2c1` registered a TGI of over 100 µM. `CC1(C)[C@@H](OC(N)=O)C=C[C@]2(CO)[C@H]3CC[C@]4(C)[C@@H](c5ccc(=O)oc5)[C@@H](Cl)C[C@]4(O)C3=CC[C@@H]12`: the GI50 was 0.00226 µM and the TGI worked out at 0.0133 µM. `CC1(C)C=[N+]([O-])C(C)(C)N1O` gave a TGI of over 10 µM. Regarding `N#C/C(C(=O)Nc1ccccc1)=C(/N)N1CCCCC1`, the TGI is over 100 µM. Turning to `COC(=O)/C=c1/c2ccccc2n2c1c1ccccc1[n+]2C`, the TGI stood at 35.2 µM.

Compound `COc1ccc2c(c1)C(=O)C1CCC(=O)N1C2c1ccc2c(c1)OCO2` (stereo unspecified) registered a TGI of 42.3 µM. Consider `Cc1ccc(/C=N\NC(=O)c2ccncc2)s1`, for which the TGI is over 100 µM. As for `COc1ccccc1NC(=O)C1=C(C)NC(C)=C(C(=O)Nc2ccccc2OC)C1c1ccc(N(C)C)cc1`, the TGI is over 100 µM.

Compound `Cc1nc2cccc(F)c2c(=O)n1-c1nnc(C(F)(F)F)s1` yielded a TGI of over 10 µM. The same measure, in the same setting: under `O=C(O)COc1cc(-c2ccccc2)nc2ccccc12` stands over 100 µM; under `COC(=O)[C@]1(C)CCC[C@@]2(C)[C@@H]3C[C@@H]4[C@H]5C[C@@]3(CC[C@@H]21)C[C@@]45C`, 43 µM; under `COc1cc(C2c3cc4c(cc3[C@@H](N(C)C)[C@H]3COC(=O)C23)OCO4)cc(OC)c1O` (stereo partly specified), over 100 µM. Take `CC12CC=CCC1CCC1C2CCC2(C)C(c3ccc(=O)oc3)CCC12O` (stereo unspecified): the GI50 was 0.112 µM and the TGI worked out at 0.694 µM.

Take `COc1c(Sc2ccccc2)cc(Sc2ccccc2)c2cccnc12`: the TGI was over 100 µM.

On to `CCCCN(CC)c1ncnc2ccc(Br)cc12`, for which the GI50 is 16.1 µM and the TGI was 38.7 µM.

Compound `Nc1ccc2c(c1)NC(=O)[C@@H]1CCCN1C2=O` showed a TGI of over 100 µM. On to `Clc1ccc2c(c1)C(N1CCNCC1)=Nc1ccccc1O2`, for which the GI50 was 5.16 µM and the TGI stood at 18 µM. As for `COc1nc(C)cc2c(=O)n(-c3ccccc3)n(CC(O)CN3CCN(c4ccc(Cl)cc4)CC3)c(=O)c12` (stereo unspecified), the GI50 was over 50 µM and the TGI was over 50 µM. Regarding `CC(=O)c1cc(-c2ccccc2N)n(-c2ccc3c(c2)OCO3)c1C`, the GI50 is 0.551 µM and the TGI was over 100 µM. Regarding `Cc1nn(CNc2ccccc2C(F)(F)F)c(=S)n1/N=C/c1ccc(F)cc1`, the GI50 is over 100 µM and the TGI is over 100 µM. `C[C@]12CC[C@H]3[C@@H](CC[C@]4(O)C[C@@H](O)CC[C@]34CO)[C@@]1(O)CC[C@@H]2C1=CC(=O)OC1`: the TGI stood at 15.4 µM. Take `CCCCCCNC(=O)Oc1ccc(/C(=C(/C)Cc2ccc(OC)cc2)c2ccc(OCCN(C)C)cc2)cc1`: the GI50 was 4.85 µM and the TGI was determined as 9.3 µM. In the case of `COc1ccc(OC)c(C[P+](c2ccccc2)(c2ccccc2)c2ccccc2)c1`, the TGI is over 100 µM. In the case of `CCCCNC(=O)Oc1ccc(/C(=C(/CC)Cc2ccccc2)c2ccc(OCCN3CCCCCC3)cc2)cc1`, the GI50 is 43.9 µM and the TGI was over 100 µM. Regarding `C[C@]12CC[C@@H](OC(=O)N(CCCl)N=O)C[C@@H]1CC[C@@H]1[C@@H]2CC[C@]2(C)C(=O)CC[C@@H]12`, the GI50 is 6.38 µM and the TGI is 22.2 µM.

As to `CCOC(=O)c1c(-c2ccccc2)c(C(OC(c2ccccc2)c2c(-c3ccccc3)c(C(=O)OCC)n3ccccc23)c2ccccc2)c2ccccn12` (stereo unspecified), the TGI was over 100 µM.

`Cc1ccc(NC2=N/C(=C/c3ccco3)C(Cl)=N2)cc1` showed a TGI of over 100 µM. As for `O=[N+]([O-])c1ccc2c(c1)n1c(N3CCCC3)[n+]3ccccc3c1c1c3cccc[n+]3c(N3CCCC3)n21`, the TGI is over 100 µM. `Nc1nc(N)nc(CC(=O)O)n1` had a TGI of over 100 µM. Same read-out and setting: as for `O=C(O)Cc1ccccc1CCc1ccccc1Cl`, the figure is over 100 µM.

Compound `CCN(CC)CCCC(C)Nc1cc(-c2ccccc2)nc2cc(OC)ccc12` (stereo unspecified) had a TGI of 21.6 µM. With `CC(C)(CN1CCCCC1)C(/C=C/c1ccccc1)=N\NC(=O)N/N=C(/C=C/c1ccccc1)C(C)(C)CN1CCCCC1`, the TGI was 7.5 µM. On to `CCOC(=O)c1c2c(n(Cc3ccccc3)c1C)-c1nc(Cc3ccccc3)[nH]c1C(=O)C2=O`, for which the GI50 is 3.33 µM and the TGI was found to be 10.4 µM.

For `CC[C@H](Nc1nc(N)nc(C2CC2)c1C#N)c1nc2cccc(NCc3ccc(C(=O)NO)cc3)c2c(=O)n1-c1ccccc1`, the GI50 was 2.55 µM and the TGI is 18 µM. For `CC(/C=C/NNC1=NC(c2ccccc2)C(c2ccccc2)=NN1)Sc1ccccc1N` (stereo unspecified), the TGI is 23.1 µM. `Cc1cnc(Nc2ccc(OCCN3CCCC3)cc2)nc1Nc1cccc(S(=O)(=O)NC(C)(C)C)c1`: the GI50 is 0.881 µM and 0.893 µM; the TGI is 14.2 µM and > 10 µM. `COc1cc2c3c(c1OC)C1(C=CC(=O)C=C1)CC3NCC2` (stereo unspecified): the TGI is over 100 µM. On the same count and under the same terms, under `C/C(=N/NC(=S)N1CCN(C(=S)N/N=C(/C)c2ccccn2)CC1)c1ccccn1` stands over 100 µM; under `NC(=S)NNC(=S)NC(=O)c1ccco1`, over 10 µM; under `CCN1CCCn2c(=O)[nH]c3cc(Br)cc1c32`, over 100 µM. On the same count and under the same terms, under `O=c1[nH]c2cc([N+](=O)[O-])c(Nc3c4ccccc4nc4ccccc34)c([N+](=O)[O-])c2[nH]1` stands 4.99 µM; under `Cc1nc2c(n1-c1ccccc1)C(=O)c1ccccc1C2=O`, over 100 µM.

In the case of `O=C(Nc1ccc(Br)cc1)Nc1nn(C(=O)Nc2ccc(Br)cc2)c2ccccc12`, the GI50 was over 100 µM and the TGI is over 100 µM. `COc1ccccc1NC(=S)N/N=C/c1ccccn1` displayed a TGI of over 31.6 µM.

`C=CCCCCn1c2ccccc2c2c(C)c3cnccc3c(C)c21`: the TGI is 36.7 µM. `O=C1/C(=C/c2ccc(O)cc2)CCC1CNc1ccccc1` (stereo unspecified) gave a TGI of 26.2 µM. The compound `CC(=O)NC(=O)NC1=NCCC(=O)N1CCc1c[nH]c2ccccc12` came in with a TGI of over 100 µM.

The compound `CC(C)(C)C(=O)N1CCN(C=O)C1=S` registered a TGI of over 100 µM. On to `CCC1(OC(=O)CN)C(=O)OCc2c1cc1n(c2=O)Cc2cc3cc4c(cc3nc2-1)OCO4` (stereo unspecified), for which the GI50 is 0.122 µM and 0.117 µM; the TGI was 46.1 µM and 12.2 µM. For the compound `NNS(=O)(=O)c1cc(C(=O)O)cc(C(=O)O)c1`, the TGI was over 100 µM. With `COc1cc2cc(C(=O)N3CC(CCl)c4c3cc(NC(=O)C(C)Nc3c([N+](=O)[O-])cc(C(=O)NCCN(C)C)cc3[N+](=O)[O-])c3ccccc43)[nH]c2c(OC)c1OC` (stereo unspecified), the TGI stood at 0.634 µM. As for `CC[C@@]12C=CCN3CC[C@]4(c5cc(NC(=O)COc6cc(OCC(=O)Nc7cc8c(cc7OC)N(C)[C@H]7[C@@](O)(C(=O)OC)[C@H](OC(C)=O)[C@]9(CC)C=CCN%10CC[C@]87[C@@H]%109)cc7oc(-c8ccccc8)cc(=O)c67)c(OC)cc5N(C)[C@@H]4[C@](O)(C(=O)OC)[C@H]1OC(C)=O)[C@H]32`, the GI50 was 4.34 µM and the TGI is over 100 µM. Regarding `CN(C)CCNC(=O)c1cc(NC(=O)c2cc(NC(=O)CC/C=C3/[C@@H]4CC[C@H]3N=N4)cn2C)cn1C`, the TGI was over 100 µM. On to `COc1cc2oc(=O)cc(C)c2cc1OC`, for which the TGI was over 100 µM. `C[C@]12CC[C@H]3[C@@H](CCC4=C(Br)C(=O)C=C[C@@]43O)[C@@H]1CCC2=O` displayed a TGI of over 100 µM.

Compound `C=CCc1ccccc1C1CC2(C(=O)OC)OC1C(C(=O)OC)=C2C(=O)OC` (stereo unspecified) returned a TGI of over 10 µM. Regarding `COc1cc(C)cc2c(-c3c(O)cc(O)c4c3C[C@H](C)N[C@H]4C)cc(-c3cc(-c4c(O)cc(O)c5c4C[C@H](C)N[C@H]5C)c4cc(C)cc(OC)c4c3O)c(O)c12`, the TGI is over 100 µM.

Consider `COc1cccc(C23CCCC(C2)N(C)CC3OC(=O)c2ccccc2)c1OC` (stereo unspecified), for which the TGI is over 100 µM. In the case of `COc1cc2oc(=O)cc(C)c2c(OC)c1OC(C)=O`, the TGI is over 100 µM. In turn, `COc1ccc(N2C(=O)C3c4[nH]c5ccccc5c4C4CCCCCCC4C3C2=O)cc1` (stereo unspecified) had a TGI of 57 µM. The same measure, in the same setting: under `Cn1c(=O)n(CC2CS2)c2ccccc21` (stereo unspecified) stands over 100 µM; under `COC(=O)[C@@H]1C=C[C@H](NC(C)=O)C1`, over 100 µM; under `CC[C@H](C)[C@H]1NC(=O)[C@@H](NC(=O)[C@@H](CC(C)C)N(C)C(=O)C2C=CCN2)[C@@H](C)OC(=O)[C@H](Cc2ccc(OC)cc2)N(C)C(=O)[C@@H]2CCCN2C(=O)[C@H](CC(C)C)NC(=O)[C@@H](C)C(=O)[C@H](C(C)C)OC(=O)C[C@@H]1O` (stereo partly specified) (H-[ξΔPro][dNMeL]T[X32]LP[NMeY](Me); ester 3-C), 0.0983 µM. With `COc1cc(/C=C/c2ccc(OC)c(OC)c2OC)cc(OC)c1OC`, the TGI is 68 µM. Consider `N=c1ccc2nc3c(cc(N)c4ccccc43)oc-2c1`, for which the GI50 is 0.223 µM and the TGI was 0.784 µM. For `CCC[CH2][Sn]1([CH2]CCC)[O]C(=O)c2ccc(N)cc2[O]1`, the GI50 was 1.47 µM and the TGI came to 2.83 µM.

With `COC1(OC)C=CC(=O)C=C1`, the TGI is 31.3 µM.

`CS(=O)(=O)NNS(=O)(=O)c1ccc(Cl)cc1`: the TGI is over 100 µM.

In turn, `C=CCOC1(CC=C)C(=O)OC2C(O)COC21O` (stereo unspecified) showed a TGI of over 100 µM. Take `COC(=O)[C@]1(C)C(OC)=CC(=O)C2C1[C@H]1CCC[C@@H]21` (stereo partly specified): the TGI was over 100 µM.

`CC(C)(Cc1ccccc1)N1C(=O)N1C(C)(C)Cc1ccccc1` yielded a TGI of over 100 µM. Still for that read-out and setting: under `COC(=O)[C@](C)(Cc1ccccc1)NC(=O)[C@@H](C)N1[C@@H](c2ccccc2)COC1(C)C` stands over 100 µM; under `Cn1c2ccc(C3=NCCN3)cc2c2cc(C3=NCCN3)ccc21`, over 100 µM. On the same count and under the same terms, under `N#Cc1c(C[n+]2ccccc2)c2ccccc2oc1=O` stands over 100 µM. Consider `O=C(N/N=C/c1ccc(Cl)cc1)c1[nH]c2ccc(Cl)cc2c1-c1ccccc1`, for which the GI50 is 0.54 µM and the TGI is over 100 µM. Take `COc1ccc(/C=C\c2cc(OC)c(OC)c(OC)c2)c(NS(=O)(=O)c2ccc(Cl)cc2)c1O`: the GI50 was 0.485 µM and the TGI was over 100 µM.
